Test results from patent US20170342169A1 (published 2017).
Blank lines part the entries; values can stand above or below the binder they belong to.

Legend:
[1] = target: CD40 (binding assays of Example 4; species and form not stated) (UniProt P25942 partial chain, limits assumed); test: antigen binding, method not stated
human mesothelin = target: T1, human mesothelin (human, UniProt Q13421 296-580, limits assumed); test: SPR
T1 construct: also called Human MSLN

mouse 4-1BB = target: T2, mouse 4-1BB (mouse, UniProt P20334 24-187); test: SPR
T2 construct: also called murine 4-1BB; mu4-1BB
T2 sequence (looked up): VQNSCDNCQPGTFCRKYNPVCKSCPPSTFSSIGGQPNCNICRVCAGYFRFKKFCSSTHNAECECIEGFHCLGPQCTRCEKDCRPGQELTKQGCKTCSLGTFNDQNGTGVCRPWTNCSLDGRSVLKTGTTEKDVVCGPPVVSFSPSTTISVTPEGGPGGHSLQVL

human 4-1BB = target: T3, human 4-1BB (human, UniProt Q07011 24-186); test: SPR
T3 construct: As used in SPR; also called hu4-1BB

Sequence of human mesothelin (Q13421 other isoform, or with tags, fused parts or gaps limits assumed): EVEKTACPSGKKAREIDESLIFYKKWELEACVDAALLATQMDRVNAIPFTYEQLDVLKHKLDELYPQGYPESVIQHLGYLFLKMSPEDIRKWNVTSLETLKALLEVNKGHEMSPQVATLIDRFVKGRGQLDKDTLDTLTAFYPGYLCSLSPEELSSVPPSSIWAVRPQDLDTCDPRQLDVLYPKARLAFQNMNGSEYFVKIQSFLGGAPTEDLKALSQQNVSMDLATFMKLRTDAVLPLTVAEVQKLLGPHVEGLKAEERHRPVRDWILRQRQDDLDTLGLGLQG
Sequence of UniProt P25942 (P25942 21-193 limits assumed): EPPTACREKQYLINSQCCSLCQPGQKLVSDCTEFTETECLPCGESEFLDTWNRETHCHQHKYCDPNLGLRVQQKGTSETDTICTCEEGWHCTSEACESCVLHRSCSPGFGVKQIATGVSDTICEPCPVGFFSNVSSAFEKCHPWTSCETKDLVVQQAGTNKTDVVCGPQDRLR

- EC50 [1]: 0.5 µg/mL
B1: B37 (bispecific antibody, IgG1)
chain: EVQLVQSGAEVKKPGSSVKVSCKASGYTFTDYYINWVRQAPGQGLEWIGWIFPGSGSVYCNEQFKGRATLTVDRSTSTAYMELSSLRSEDTAVYFCASSLGKFAYWGQGTLVTVSSDLSGGGGSGGGGSGGGGSGGGGSTGDIQMTQSPSSLSASVGDRVTITCKASQSVVTAVAWYQQKPGKSPKLLIYSASNRYTGVPSRFSGSGSGTDFTLTISSLQPEDFATYFCQQYSSYPYTFGGGTKVEIKR[human IgG1 Fc with C220S V273E (EU numbers) not written out]VDGASSPVNVSSPSVQDISYELTQPPSVSVSPGQTASITCSGDKLGDKYASWYQQKPGQSPVLVIYQDNRRPSGIPERFSGSNSGNTATLTISGTQAMDEADYYCQAWDSDTYVFGTGTKVTVLGQDLSGGGGSGGGGSGGGGSGGGGSTGEVQLVQSGAEVKKPGASVKVSCKASGDTFKRYYVHWVRQAPGQGLEWMGIINPSGVSTTYAQKFQGRVTMTRDTSTSTVYMELSSLRSEDTAVYYCAEVRGSGFNYFGMDVWGQGTLVTVSS
notes: scFv-Fc-scFv: huAb8-1 (VH-VL) N-terminal, HuAM15 (VL-VH) C-terminal, huIgG1 V273E

- Kd (human mesothelin): 1.5 nM
- Kd (mouse 4-1BB): 49 nM
- Kd (human 4-1BB): 7.1 nM
B2: hu107MSLN-3 (bispecific antibody)
chain: SYELTQPPSVSVSPGQTASITCSGDKLGDKYASWYQQKPGQSPVLVIYQDNRRPSGIPERFSGSNSGNTATLTISGTQAMDEADYYCQAWDSDTYVFGTGTKVTVLGQGGGGSGGGGSGGGGSGGGGSGGGGSGGGGSEVQLVQSGAEVKKPGASVKVSCKASGDTFKRYYVHWVRQAPGQGLEWMGIINPSGVSTTYAQKFQGRVTMTRDTSTSTVYMELSSLRSEDTAVYYCAEVRGSGFNYFGMDVWGQGTLVTVSS[human IgG1 Fc with C220S V273E (EU numbers) not written out]GGGGSGGGSGGGSGGGGSEVQLVQSGAEVKKPGSSVKVSCKASDYTFNDYWVSWVRQAPGQGLEWIGEIYPNSGATNFNGKFRGRATLTVDNSASTAYMELSSLRSEDTAVYYCTREYTRDWFAYWGQGTLVTVSSGGGGSGGGGSGGGGSGGGGSGGGGSGGGGSDVVLTQSPLSLPVTLGQPASISCRSSQSLLDSDGNTYLYWFQQRPGQSPRRLIYLVSNLGSGVPDRFSGSGSGTDFTLKISRVEAEDVGVYYCMQPTHAPYTFGQGTKLEIKR
notes: see m102

- Kd (human mesothelin): 3.6 nM
- Kd (mouse 4-1BB): 29 nM
- Kd (human 4-1BB): 1.4 nM
B3: hu107MSLN-1 (bispecific antibody)
chain: EVQLVQSGAEVKKPGSSVKVSCKASDYTFNDYWVSWVRQAPGQGLEWIGEIYPNSGATNFNGKFRGRATLTVDNSASTAYMELSSLRSEDTAVYYCTREYTRDWFAYWGQGTLVTVSSGGGGSGGGGSGGGGSGGGGSGGGGSGGGGSDVVLTQSPLSLPVTLGQPASISCRSSQSLLDSDGNTYLYWFQQRPGQSPRRLIYLVSNLGSGVPDRFSGSGSGTDFTLKISRVEAEDVGVYYCMQPTHAPYTFGQGTKLEIKR[human IgG1 Fc with C220S V273E (EU numbers) not written out]GGGGSGGGSGGGSGGGGSSYELTQPPSVSVSPGQTASITCSGDKLGDKYASWYQQKPGQSPVLVIYQDNRRPSGIPERFSGSNSGNTATLTISGTQAMDEADYYCQAWDSDTYVFGTGTKVTVLGQGGGGSGGGGSGGGGSGGGGSGGGGSGGGGSEVQLVQSGAEVKKPGASVKVSCKASGDTFKRYYVHWVRQAPGQGLEWMGIINPSGVSTTYAQKFQGRVTMTRDTSTSTVYMELSSLRSEDTAVYYCAEVRGSGFNYFGMDVWGQGTLVTVSS
notes: see m102

- Kd (human mesothelin): 1.4 nM
- Kd (mouse 4-1BB): 52 nM
- Kd (human 4-1BB): 6.1 nM
B4: hu107MSLN-4 (bispecific antibody)
chain: SYELTQPPSVSVSPGQTASITCSGDKLGDKYASWYQQKPGQSPVLVIYQDNRRPSGIPERFSGSNSGNTATLTISGTQAMDEADYYCQAWDSDTYVFGTGTKVTVLGQGGGGSGGGGSGGGGSGGGGSGGGGSGGGGSEVQLVQSGAEVKKPGASVKVSCKASGDTFKRYYVHWVRQAPGQGLEWMGIINPSGVSTTYAQKFQGRVTMTRDTSTSTVYMELSSLRSEDTAVYYCAEVRGSGFNYFGMDVWGQGTLVTVSS[human IgG1 Fc with C220S V273E (EU numbers) not written out]GGGGSGGGSGGGSGGGGSDVVLTQSPLSLPVTLGQPASISCRSSQSLLDSDGNTYLYWFQQRPGQSPRRLIYLVSNLGSGVPDRFSGSGSGTDFTLKISRVEAEDVGVYYCMQPTHAPYTFGQGTKLEIKRGGGGSGGGGSGGGGSGGGGSGGGGSGGGGSEVQLVQSGAEVKKPGSSVKVSCKASDYTFNDYWVSWVRQAPGQGLEWIGEIYPNSGATNFNGKFRGRATLTVDNSASTAYMELSSLRSEDTAVYYCTREYTRDWFAYWGQGTLVTVSS
notes: see m102

- Kd (human mesothelin): 4.5 nM
- Kd (mouse 4-1BB): 74 nM
- Kd (human 4-1BB): 670 nM
B5: hu106MSLN-2 (bispecific antibody)
chain: NVMLTQPHSVSESPGKTVTISCKLNSGNIGSYYVHWYQQRPGSSPTTMIYRDDKRPDGVPDRFSGSIDSSSNSASLTISGLKTEDEADYYCHSYDSTITPVFGGGTKLTVLGQGGGGSGGGGSGGGGSGGGGSGGGGSGGGGSEVQLVQSGAEVKKPGSSVKVSCKASGYTFTSYYIYWVRQAPGQGLEWIGNIWPGNGGTFYGEKFMGRATFTADTSTSTAYMELSSLRSEDTAVYYCARRPDYSGDDYFDYWGQGTLVTVSS[human IgG1 Fc with C220S V273E (EU numbers) not written out]GGGGSGGGSGGGSGGGGSSYELTQPPSVSVSPGQTASITCSGDKLGDKYASWYQQKPGQSPVLVIYQDNRRPSGIPERFSGSNSGNTATLTISGTQAMDEADYYCQAWDSDTYVFGTGTKVTVLGQGGGGSGGGGSGGGGSGGGGSGGGGSGGGGSEVQLVQSGAEVKKPGASVKVSCKASGDTFKRYYVHWVRQAPGQGLEWMGIINPSGVSTTYAQKFQGRVTMTRDTSTSTVYMELSSLRSEDTAVYYCAEVRGSGFNYFGMDVWGQGTLVTVSS
notes: see m102

- Kd (human mesothelin): 1.4 nM
- Kd (mouse 4-1BB): 110 nM
- Kd (human 4-1BB): 2300 nM
B6: hu106MSLN-3 (bispecific antibody)
chain: SYELTQPPSVSVSPGQTASITCSGDKLGDKYASWYQQKPGQSPVLVIYQDNRRPSGIPERFSGSNSGNTATLTISGTQAMDEADYYCQAWDSDTYVFGTGTKVTVLGQGGGGSGGGGSGGGGSGGGGSGGGGSGGGGSEVQLVQSGAEVKKPGASVKVSCKASGDTFKRYYVHWVRQAPGQGLEWMGIINPSGVSTTYAQKFQGRVTMTRDTSTSTVYMELSSLRSEDTAVYYCAEVRGSGFNYFGMDVWGQGTLVTVSS[human IgG1 Fc with C220S V273E (EU numbers) not written out]GGGGSGGGSGGGSGGGGSEVQLVQSGAEVKKPGSSVKVSCKASGYTFTSYYIYWVRQAPGQGLEWIGNIWPGNGGTFYGEKFMGRATFTADTSTSTAYMELSSLRSEDTAVYYCARRPDYSGDDYFDYWGQGTLVTVSSGGGGSGGGGSGGGGSGGGGSGGGGSGGGGSNVMLTQPHSVSESPGKTVTISCKLNSGNIGSYYVHWYQQRPGSSPTTMIYRDDKRPDGVPDRFSGSIDSSSNSASLTISGLKTEDEADYYCHSYDSTITPVFGGGTKLTVLGQ
notes: see m102

- Kd (human mesothelin): 3.1 nM
- Kd (mouse 4-1BB): 44 nM
- Kd (human 4-1BB): 3.6 nM
B7: hu107MSLN-2 (bispecific antibody)
chain: DVVLTQSPLSLPVTLGQPASISCRSSQSLLDSDGNTYLYWFQQRPGQSPRRLIYLVSNLGSGVPDRFSGSGSGTDFTLKISRVEAEDVGVYYCMQPTHAPYTFGQGTKLEIKRGGGGSGGGGSGGGGSGGGGSGGGGSGGGGSEVQLVQSGAEVKKPGSSVKVSCKASDYTFNDYWVSWVRQAPGQGLEWIGEIYPNSGATNFNGKFRGRATLTVDNSASTAYMELSSLRSEDTAVYYCTREYTRDWFAYWGQGTLVTVSS[human IgG1 Fc with C220S V273E (EU numbers) not written out]GGGGSGGGSGGGSGGGGSSYELTQPPSVSVSPGQTASITCSGDKLGDKYASWYQQKPGQSPVLVIYQDNRRPSGIPERFSGSNSGNTATLTISGTQAMDEADYYCQAWDSDTYVFGTGTKVTVLGQGGGGSGGGGSGGGGSGGGGSGGGGSGGGGSEVQLVQSGAEVKKPGASVKVSCKASGDTFKRYYVHWVRQAPGQGLEWMGIINPSGVSTTYAQKFQGRVTMTRDTSTSTVYMELSSLRSEDTAVYYCAEVRGSGFNYFGMDVWGQGTLVTVSS
notes: see m102

- Kd (human mesothelin): 4.7 nM
- Kd (mouse 4-1BB): 71 nM
- Kd (human 4-1BB): 800 nM
B8: hu106MSLN-1 (bispecific antibody)
chain: EVQLVQSGAEVKKPGSSVKVSCKASGYTFTSYYIYWVRQAPGQGLEWIGNIWPGNGGTFYGEKFMGRATFTADTSTSTAYMELSSLRSEDTAVYYCARRPDYSGDDYFDYWGQGTLVTVSSGGGGSGGGGSGGGGSGGGGSGGGGSGGGGSNVMLTQPHSVSESPGKTVTISCKLNSGNIGSYYVHWYQQRPGSSPTTMIYRDDKRPDGVPDRFSGSIDSSSNSASLTISGLKTEDEADYYCHSYDSTITPVFGGGTKLTVLGQ[human IgG1 Fc with C220S V273E (EU numbers) not written out]GGGGSGGGSGGGSGGGGSSYELTQPPSVSVSPGQTASITCSGDKLGDKYASWYQQKPGQSPVLVIYQDNRRPSGIPERFSGSNSGNTATLTISGTQAMDEADYYCQAWDSDTYVFGTGTKVTVLGQGGGGSGGGGSGGGGSGGGGSGGGGSGGGGSEVQLVQSGAEVKKPGASVKVSCKASGDTFKRYYVHWVRQAPGQGLEWMGIINPSGVSTTYAQKFQGRVTMTRDTSTSTVYMELSSLRSEDTAVYYCAEVRGSGFNYFGMDVWGQGTLVTVSS

- Kd (human mesothelin): 1.4 nM
- Kd (mouse 4-1BB): 140 nM
- Kd (human 4-1BB): 1400 nM
B9: hu106MSLN-4 (bispecific antibody)
chain: SYELTQPPSVSVSPGQTASITCSGDKLGDKYASWYQQKPGQSPVLVIYQDNRRPSGIPERFSGSNSGNTATLTISGTQAMDEADYYCQAWDSDTYVFGTGTKVTVLGQGGGGSGGGGSGGGGSGGGGSGGGGSGGGGSEVQLVQSGAEVKKPGASVKVSCKASGDTFKRYYVHWVRQAPGQGLEWMGIINPSGVSTTYAQKFQGRVTMTRDTSTSTVYMELSSLRSEDTAVYYCAEVRGSGFNYFGMDVWGQGTLVTVSS[human IgG1 Fc with C220S V273E (EU numbers) not written out]GGGGSGGGSGGGSGGGGSNVMLTQPHSVSESPGKTVTISCKLNSGNIGSYYVHWYQQRPGSSPTTMIYRDDKRPDGVPDRFSGSIDSSSNSASLTISGLKTEDEADYYCHSYDSTITPVFGGGTKLTVLGQGGGGSGGGGSGGGGSGGGGSGGGGSGGGGSEVQLVQSGAEVKKPGSSVKVSCKASGYTFTSYYIYWVRQAPGQGLEWIGNIWPGNGGTFYGEKFMGRATFTADTSTSTAYMELSSLRSEDTAVYYCARRPDYSGDDYFDYWGQGTLVTVSS
notes: see m102
